Measurements as given in the supplement of paper PMC4967469.

How the values were obtained:
Assay in all cases: Viability of human cancer cell lines after 72 h of drug (GDSC screen)
[1] = compound: Cc1ccc(NC(=O)c2ccc(CN3CCN(C)CC3)cc2)cc1Nc1nc(-c2cccnc2)cs1 [Masitinib]; settings: top dose 20 µM
Description: (§1)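 Human cancer cell lines in 384-well plates, medium with 10% serum, drug for 72 h over a 256-fold dose range (nine 2-fold or five 4-fold steps up to the top dose). Adherent lines were fixed and stained with the nucleic acid dye Syto60, suspension lines read with resazurin; signal relative to control wells, capped at 0 and 100%. One two-parameter sigmoid per drug and line, fitted in a mixed model over all curves with the slope shared within a line.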

[2] = compound: O=C(Nc1ccc(OC(F)(F)F)cc1)c1sccc1NCc1ccnc2ccccc12 [OSI-930]; settings: top dose 10.24 µM
Description: as §1

[3] = compound: CCCC(=O)OCc1ccc(OC(=O)/C=C(C)/C=C/C=C(C)/C=C/C2=C(C)CCCC2(C)C)cc1 [VNLG/124]; settings: top dose 5.12 µM; top dose inferred
Description: as §1

[4] = compound: Cc1c(N)nc([C@H](CC(N)=O)NC[C@H](N)C(N)=O)nc1C(=O)N[C@H](C(=O)N[C@H](C)[C@@H](O)[C@H](C)C(=O)N[C@H](C(=O)NCCc1nc(-c2nc(C(=O)NCCC[S+](C)C)cs2)cs1)[C@@H](C)O)[C@@H](OC1OC(CO)C(O)C(O)C1OC1OC(CO)C(O)C(OC(N)=O)C1O)c1cnc[nH]1 [Bleomycin]
Description: as §1

[5] = compound: CC/C(=C(\c1ccccc1)c1ccc(OCCN(C)C)cc1)c1ccccc1 [Tamoxifen]; settings: top dose 5 µM
Description: as §1

[6] = compound: CN(NC(=O)CC(=O)NN(C)C(=S)c1ccccc1)C(=S)c1ccccc1 [Elesclomol]; settings: top dose 0.2 µM; top dose inferred
Description: as §1

[7] = compound: O=S(=O)(O)c1ccc2cc(N=Nc3cc(S(=O)(=O)O)c4cccnc4c3O)ccc2c1 [NSC-87877]; settings: top dose 16 µM; top dose inferred
Description: as §1

[8] = compound: O=C(Nc1cccc(Nc2ncc(Br)c(NCCc3cnc[nH]3)n2)c1)N1CCCC1 [BX-912]; settings: top dose 10.24 µM; top dose inferred
Description: as §1

[9] = compound: O=C(/C=C/c1ccc(CN(CCO)CCc2c[nH]c3ccccc23)cc1)NO [LAQ824]; settings: top dose 1.024 µM; top dose inferred
Description: as §1

[10] = top dose 50 µM, screen: GDSC drug entry 1378, top dose inferred
[11] = top dose 64 µM, screen: GDSC drug entry 190

Row | Cell Line | AUC [1] | pIC50 [1] | AUC [2] | pIC50 [2] | AUC [3] | pIC50 [3] | AUC [4, 10] | pIC50 [4, 10] | AUC [4, 11] | pIC50 [4, 11] | AUC [5] | pIC50 [5] | AUC [6] | pIC50 [6] | AUC [7] | pIC50 [7] | AUC [8] | pIC50 [8] | AUC [9] | pIC50 [9]
1 | 697 (lymphoblastic leukaemia, suspension) | 0.855 | 4.95 | 0.921 | < 4.99 | 0.952 | < 5.29 | 0.568 | 5.34 | 0.337 | 5.81 | 0.983 | < 5.30 | 0.36 | 8.25 | 0.95 | < 4.80 | 0.399 | 6.44 | 0.174 | 8.05
2 | NU-DUL-1 (B-cell lymphoma, suspension) | 0.849 | 4.97 | 0.944 | < 4.99 | 0.848 | 5.56 | 0.947 | < 4.30 | 0.464 | 5.49 | 0.99 | < 5.30 | 0.555 | 7.77 | 0.987 | < 4.80 | 0.394 | 6.46 | 0.233 | 7.88
3 | KP-2 (pancreas, adherent) | 0.909 | < 4.70 | 0.941 | < 4.99 | 0.963 | < 5.29 | 0.869 | < 4.30 | 0.851 | 4.26 | 0.981 | < 5.30 | 0.542 | 7.79 | 0.986 | < 4.80 | 0.873 | < 4.99 | 0.369 | 7.57
4 | 647-V (bladder, adherent) | 0.981 | < 4.70 | 0.972 | < 4.99 | 0.979 | < 5.29 | 0.525 | 5.44 | 0.373 | 5.75 | 0.968 | < 5.30 | 0.425 | 8.11 | 0.987 | < 4.80 | 0.951 | < 4.99 | 0.499 | 7.20
5 | JHU-011 (head and neck, adherent) | 0.758 | 5.16 | 0.973 | < 4.99 | 0.974 | < 5.29 | 0.103 | > 6.71 | 0.291 | 5.98 | 0.985 | < 5.30 | 0.549 | 7.77 | 0.943 | < 4.80 | 0.903 | < 4.99 | 0.212 | 8.03
6 | EFO-21 (ovary, adherent) | 0.956 | < 4.70 | 0.971 | < 4.99 | 0.968 | < 5.29 | 0.885 | < 4.30 | 0.496 | 5.41 | 0.963 | < 5.30 | 0.806 | 6.79 | 0.977 | < 4.80 | 0.848 | < 4.99 | 0.519 | 7.13

pIC50: −log10 of the molar value. A lower IC50 marks a more sensitive line; fits outside the tested doses are given as limits. For AUC the same curve is integrated over the 256-fold range of doses and scaled to a fraction: 1 means no effect, lower means more sensitive. For part of these data: Where the top dose is marked as inferred, it was calculated from the reported fits. For part of these data: Where an entry number is given, a second screen of the drug exists; the two often differ.
